# In publication PMC10726135:
# Some of the results follow. At the low end of the ranking, values are background and their order means little. The protein was read in a cell extract, so binding may be indirect.
# Molecular target: T1, HNF4alpha8 (COS-7 nuclear extract) (UniProt P41235-5)
# T1 sequence: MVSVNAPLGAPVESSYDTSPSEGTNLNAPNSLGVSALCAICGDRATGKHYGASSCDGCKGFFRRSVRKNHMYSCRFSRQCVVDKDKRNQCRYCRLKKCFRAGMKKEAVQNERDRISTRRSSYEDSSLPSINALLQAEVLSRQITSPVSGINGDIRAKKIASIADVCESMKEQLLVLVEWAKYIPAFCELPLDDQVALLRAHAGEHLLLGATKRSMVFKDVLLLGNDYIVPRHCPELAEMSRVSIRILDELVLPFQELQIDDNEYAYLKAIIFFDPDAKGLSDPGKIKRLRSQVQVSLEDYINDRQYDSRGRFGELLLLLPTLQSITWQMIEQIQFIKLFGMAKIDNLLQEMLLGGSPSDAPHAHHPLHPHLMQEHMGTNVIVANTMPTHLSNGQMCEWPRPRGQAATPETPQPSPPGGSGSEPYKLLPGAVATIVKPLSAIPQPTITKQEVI
# Assay: protein-binding microarray
# Conditions: COS-7 nuclear extract on double-stranded Agilent 4x180k PBM; binding buffer, salt, pH and temperature not given; high values mean tight binding; double strand, one strand shown; sequences stand for … in …GCCTAGGGAGATTAGAGTATCGGTCGA
row,Sequence,binding signal (log2 normalized intensity)
1,CATACTTCAGCAATTTCTTAGTAAACACTG,-1.2
2,TTGATTTAACATTTGTGATCTGGCACAAAT,0.366
3,CTCCTGGTGTGCTGTTAGCTGAAGGACGTC,0.726
4,CGGTCACTACAACAACGGCGGCCCAGTCAA,-1.32
5,CTGGCGTCCCCCACCTGGAATGTGCTCCCG,3.76
6,TGTTTGCATTAGTTATATCTTACCTCCTTC,0.703
7,CCCTGGAGCACAGAAGGAGGGCGGGGAGTC,-1.25
8,TCTTCAAGGAGGTGAACTTTGAGACTATCC,5.2
9,TTGGAAAAAGCAGGCAACCAAGGGTACACA,-1.14
10,GTCAGGGGCAGGTGGAGGTGGGATACTGGG,-1.15
11,AGAGTCCAAATTCCTTGGTATGGCAAATAA,2.16
12,GGAGGGGTGCGAAGGTCGAGGCCAGGGATT,3.05
13,GTGTTATCTCTGATGCCCTTTGGCCTTTCT,7.1
14,AGAGCGTCCCACCTGAGGCCAAGCAGCTGT,-1.26
15,ATGTTTTGTTATCTGTGCCACAGGTATTTC,1.12
16,AGCATAAGGTTTCCATCAAGCCTTTGACTC,-1.1
17,ACCGGGATTTTGTTGGGGAACTTTGCCCGG,5.21
18,AAAGAGCAGCTAGCTCCAGTTGGTTGCTAA,-1.44
19,ATTAAAAGATAAAACATTGTACCTTCTACC,1.54
20,TGGCCAATCCCAGGGTCAGAGGTCGCGAGG,4.67
21,CAAACAATCCTCCCACCTCAGCATCCCAAG,0.544
22,CCAGGTCTCCTCCACAGAGCACAGGATCCA,-1.24
23,TGGGTTCAAAGGTCAGAAAAAGCTGACGCC,7.25
24,GTCAGTGTCCAGCACACCTTTTTTTCATGC,0.77
25,GGCGTCACCAACCAGCCCTCGAGTGAGGGG,2.08

row,Sequence,binding signal (log2 normalized intensity)
1,CACTCCATTTACAGACCAATCCATTGACCT,3.76
2,AGCCAGGCCAACACCAAGCAAGCTCTGCAA,-1.23
3,GCCAAACCAGGTCATGCATTCTGCTTACTA,-1.31
4,CACAAGCTGTGTGGCATGGTGTTTTGCCTT,1.27
5,CTGGAAATGTTTGTAGGGACTTTGACCCCT,10.4
6,CCCCCAACAGGGCTCCTGTTCAGCATAGTC,2.5
7,AGAAAGGGGTCAGCAAAAATAGCCAAAATA,-1.27
8,TAGTGCAAGAATCCAAGAATTCGATTGTTT,-1.28
9,TCCGTCTATAAATACGCCTCGCCCGAGCTG,-1.33
10,TCCGGGGTCACGCGCGTGTGGATACGATGA,1.51
11,TCAGCTGACATTGGTGGAATCTGAACTTTT,3.83
12,CTGGGGGCAAAGGTTCACTTTGGGGAAGTC,4.6
13,ACAGGCCCTCTGATATTGGGTGAGTGTTAG,0.729
14,TCTTATCTGCCTAGGCATTTGGCTGTCTCA,-1.32
15,CTGGGGACCTTTATATGTCCACCTTATCTA,0.803
16,CTACAAGGACCAGATTCTTAAAGGGACCAC,-0.799
17,GCACAGGTCCTACTCACACTCAAGGCAAGA,-1.38
18,TTGCACTCATACTTGAAGACATTCCAAGAA,-1.27
19,GGACTTTGGTGTCTGACAGATAAGATTTGG,2.62
20,TCGGAAGACGCACCTCTGCATACTTCCTGT,-1.24
21,GAGGAGTGAGAACAGACAAAATTAAGTGAT,-0.842
22,GTGGTAGGACAGGGCCCTTCACTATTTTCA,-1.34
23,GTTCTCTGGGCTTTTTGATCTTGTCACATT,1.99
24,GCAGAGTCCCAAGCATCTCTGAGCAGTGAA,-1.38
25,CATGAAGGTCTCCTTGACTTCAAAGGCATT,-1

row,Sequence,binding signal (log2 normalized intensity)
1,CATTTTTTCAAACACCTGGGTCTGACCTCT,4.84
2,ACATGGGCGTCACCAACCAGCCCTCGAGTG,3.36
3,AGGCTGGGGGCAGAGTTCACCCCATTTTGT,3.24
4,TTTGCATTCTTACCCAAGCCCCAAATCTAG,3.06
5,CAAACAGCGCTTATCTGGAAACTATTCCTT,-1.1
6,TTGTGATACACCTTGCCTGGCTACCTCTTA,-0.56
7,GAGAAGCCTAAGCAGGGCTAGACTTTAACC,4.91
8,GTGATCAAACAAAAGGGACAAAGGTGAGTG,2.67
9,TGAGGGTTAAAGGAGATAATGGGTGTAAGA,0.874
10,GCATCTGAGCAGATGTAAACATCATTCACG,-1.25
11,TTTGTTTGTGTAAGTGTGGGTTTAAGTAAG,1.69
12,ACCCTGTGATGACCCCATACTTCAGCAATT,2.21
13,CTGCTTTCAGAGATGATAAGCCCTGAGTAG,-1.14
14,CGGCTGTCAAATCACTGAAGCGACCCCTCG,3.5
15,GCAGGGTCATAGCTTTATCTCTCCCCCACC,4.32
16,GATATGCGGCTGCAAATTCTGCATTTTTCT,-1.17
17,GCCGGGAGCAGGGAGCGAGACGCTGAGCTT,-1.4
18,AGGAGGAGGTTCCTGGAACTCTGACCTTTG,6.98
19,GGCTGATAGGCAGAAGGGACTAGCCTTATC,-1.39
20,TAAACTTTTGATTGCTTAGGCTCTTGTTAT,0.612
21,TGTGTTACGTCTGGTTTCTTATCTTTCTCA,1.76
22,TTCTCTGGCAAATATCAGCATGGTATGTGG,0.931
23,CTTGAGGCTCCGATAAACCCAGGCAATGAC,-1.16
24,GCTGTCACCTTTACCCCCACTCTCCGCTGG,3.71
25,GGACTGGAAGGGAGAGATAAGAAAAACTGA,-1.31

row,Sequence,binding signal (log2 normalized intensity)
1,CCGAGGTCTGATAAGCACCCTGCTCCAGCC,-1.35
2,AGGTTGGCTAAAGATAACCTAGAAAGGAGA,-1.31
3,GGTCCAGAGTTCACTGCAGGCTGGGGGCAG,1.8
4,TCTGCATACCAGGTAAGTGACATGCTTGCT,-1.41
5,GCCATGAGTTGGGGACAAAGTTCAAGGTCC,6.42
6,GGAAAGGCATACGTGCTTAATCCTGGTGCA,-0.941
7,GTAGGGCAGAGGCCAGTTTGATCACAAGAC,-0.285
8,CACTCACAGGACTGCTGTGAGGATTGATTA,-1.16
9,CCTGAAAACTGGAGGCCGCGACAAGCGTCG,-1.32
10,CCTCAGTCCATCCTGTCTCACCAGACCAAG,-1.31
11,ACTTTGGAACTCAGTTAATGTACAGAGTAT,0.96
12,CTGCACCATTCTTGTCCTTTCGGTGTGTGC,2.12
13,CCTGTAGCTTCCGAAAGTATTTTTCTAGTC,0.47
14,ATCTCACTCTTTGTTATTTATTGGCCAGTA,2.01
15,GTGTGAATCTCCAACAAGGCAGGAGATTCC,-1.13
16,GCAGGAAGGAGCCTGCTTTGCTGAGGAACT,-1.32
17,ACTAGGCAGCTTGGGAGCAATTTAGCAGCA,-1.26
18,CTCCCTAGAAGAGTGAACCTAGTGGCTGTG,-1.23
19,GGGGATTGTGTAACATCTAAGATTGGCCCT,1.84
20,GAGACACAAGGAAAAATGACCATCTCGTCA,-1.42
21,GTTACATCATAGTGTTTGCCTTATTTGAAC,2.18
22,AGAGTGAGCAGCACTTTTGGAGTTTGACCT,8.51
23,GATCTTTGGGCCATATTGACTAAACATTCT,0.59
24,TAGATATCGCTCCAAGAGCCAACAGGAATT,-1.28
25,GGTGGAGAAAGGCAGAAGGTTCCAGGGAAC,-1.45

row,Sequence,binding signal (log2 normalized intensity)
1,TCCAGCATTCTTTTCCCCATACCAGGCAGT,2.54
2,GTGTATGGGTATAGGCGCGCGTGTGTGTGT,2.15
3,AGTGACATGCTTGCTTTTCAAACAGTGTGC,0.723
4,TTACTGACTCCACAGTGGGGCAGATCACAA,-1.3
5,TTGGCTCTTATGTCCCTCCTGACCTTTGGA,9.16
6,AAAAGGCAGTCCTTAGATCCACGGAGAATG,-1.18
7,TGTCAGGGAAGGCTAGCATTCCTGCACACC,-1.34
8,AATCTGTGACTGAGCAGAGATTTGACCTAA,3.24
9,GGACAAACTGAGGAGGACATACTCCTACCA,-1.35
10,TGGTAGTTGCTGAAGGGCAGGGTTGGCTGT,0.177
11,ACTCATTTCACATTGGTGCCCTTTGCCTTT,4.99
12,TGGTTAGGTATTTTAAGTCACCAGATGAGA,0.826
13,ACACAAACTCTGGAGTTTGCCCTTCACAAA,4.33
14,AGAAGAAAGGGGCTAGGGCAAAGATCAAAC,3.37
15,AAGGACAAAGGTCATGTTTTCAAACAATGA,5.49
16,CTGTGTCAGCAGAAGGCCCCAGGTGAACCA,0.676
17,AAGGGACAGGGGCCCAAGATAAAGGGACAG,-1.36
18,CTAACCAGCTCTATCAGTCTGGGTCCAGTC,2.82
19,CTCATGGGCCTAAACATTCCCCTTTGTCTA,1.83
20,AGGTCATGCATAGAAGTATGTCTGGGATTT,0.935
21,TTACTCTTAGAGATAATGGGGGAGCCACTG,-0.899
22,TGTATGACCTTTGTTTTATTGTCATGCTGA,3.07
23,AGCACTTCATCCTTATGTAACTGTAACTAT,0.645
24,CTGGTCCCCTGCACAGTCAAAAATTTGTGT,0.926
25,CTCCTTGGAAGTCGCCGTGAGGTTATTTGC,0.914

row,Sequence,binding signal (log2 normalized intensity)
1,AGAACAGAATCCAGTCTGGTTAGTTTAAGC,-1.29
2,GACAGGATATTTTGAGGGCTCAAAGGTTAC,5.91
3,TCCGAAATAAACTGAGGGGTGGGGACCAGT,-0.954
4,TCAGAAGGAAAGTCTCCCTCCCTTTGATCC,2.04
5,TGATCAAGAGGCTCTTCAATGCATTCCTGA,-1.26
6,TTCTTTAAGCTATGTGGTGGAATGGAAAGA,1.1
7,CTGATCCCAGCCCCACGGCTGAGCGGCCTT,0.595
8,AGGCGCTGTGAAGCACATCCTGTTCTAGCT,-1.46
9,GTTATCTATTTGCATTCCATCAGTAGTATT,1.41
10,TTCCTCTGGCATCTGGTCAGGGGTCAAGAA,4.62
11,TGTAAACCTAGGTAGTGGACTCTAAGGCAA,2.37
12,GGACTCTGGAACCATCAGGATTCCAGAGGA,2.36
13,CTGCATTCCAGCCTGGGGCAATAGAGTAAG,-1.41
14,TTATTGAGCACTTTTGGTATGCAAGGCATG,1.22
15,TCCCCCTGCTGGACACCGAGGTCCTGGGGC,2.61
16,GGTCAAAGGGTAAAGATTATGAACTAATTT,1.87
17,TAGAGTCAATACTCCACAAGACCACAAGGT,-1.19
18,TAAGTCACTGGGCTGATGACCTTTGACTGA,7.85
19,TGCCTTGTGTACTCTATCCAGTAGAGGGCA,2.59
20,GTTTCCTGAGTTACAGATAAGCAGAAGGTC,1.64
